# Reference: the supplement of paper PMC9446081
# In all, about 39,000 compounds went through this assay and about 220 (0.56%) showed activity. This is one part of the list.
# System: Escherichia coli K-12 BW25113
# Test: relative growth (OD600 normalised to plate interquartile mean) (fraction); higher = less growth inhibition, active = 0.2 or less
# Conditions: 50 µM; LB; incubation time: overnight (16-24 h)
# 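Note: static incubation at 37 °C against the wild-type strain, values averaged over two biological replicates.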
row,SMILES,relative growth
1,CC(=O)Nc1ncc(CN2CCOCC2)s1,inactive: 1.03
2,CC(Cc1ccc(O)c(O)c1)(NN)C(=O)O (stereo not drawn),inactive: 0.881
3,Cc1cc(NS(=O)(=O)c2ccc(N)cc2)nc(C)n1,inactive: 1.02
4,C/C=C/[C@@H](CCn1cc(CCO[Si](C(C)C)(C(C)C)C(C)C)nn1)[Si](C)(C)c1ccc(OC)cc1,inactive: 1.06
5,Cc1cc2cc(C)nn2c(N)n1,inactive: 0.985
6,COc1ccc(NC(=O)Nc2cccc3c2O[C@@H](CN(C)Cc2ccc(C(=O)Nc4ccccc4N)cc2)[C@@H](C)CN([C@H](C)CO)C3=O)cc1,inactive: 1.01
7,Cc1ccc(S(=O)(=O)N(C)C[C@@H]2OCCCC[C@H](C)Oc3ccc(NC(=O)NC4CCCCC4)cc3C(=O)N([C@H](C)CO)C[C@@H]2C)cc1,inactive: 0.999
8,CS(=O)(=O)Nc1ccc2c(c1)[C@H]1C[C@H](CC(=O)NCC3CC3)O[C@@H](CO)[C@H]1O2,inactive: 1.02
9,C[C@H](CO)N1C[C@H](C)[C@H](CN(C)C(=O)Nc2cccc(C(F)(F)F)c2)OCc2cn(nn2)CCCC1=O,inactive: 0.993
10,COC(=O)c1cncn1C,inactive: 0.982
11,C=CCC[C@H](Cc1ccc(F)cc1)C(=O)OC[C@H](Cc1c[nH]c2ccccc12)NC(=O)[C@@H](CC=C)CC(=O)N[C@@H](CO)Cc1ccccc1,inactive: 0.995
12,CCC(=O)N[C@@H]1CC[C@@H](CC(=O)OC)O[C@@H]1CO,inactive: 1
13,C[C@H]1CN([C@@H](C)CO)C(=O)c2cccc(NC(=O)c3nc4ccccc4s3)c2O[C@@H]1CN(C)C(=O)Nc1cccc2ccccc12,inactive: 1.02
14,C=C[C@@H](N)CCC(=O)O,inactive: 0.998
15,COc1ccc([Si](C)(C)[C@H]2[C@H](CCO)O[C@@]3(C(=O)N(Cc4ccccc4)c4ccc(N5CCCCC5=O)cc43)[C@@H]2C)cc1,inactive: 1.04
16,CCCNC(=O)N1C[C@@H](C)[C@@H](OC)CN(C)C(=O)c2cc(NS(=O)(=O)CC(F)(F)F)ccc2OC[C@H]1C,inactive: 1.01
17,O=C(C[C@H]1CC[C@H]2[C@@H](COC[C@@H](O)CN2C(=O)Nc2ccc(F)cc2)O1)NCCCN1CCOCC1,inactive: 0.983
18,C=CCN1C[C@@H](C(=O)O)CCC1=O,inactive: 1.02
19,COc1cccc(C#Cc2ccc([C@@H]3[C@@H](CO)N4C(=O)CN(S(=O)(=O)c5ccccc5C)C[C@H]34)cc2)c1,inactive: 1.05
20,COc1ccccc1OCC(O)CN1CCN(CC(=O)Nc2c(C)cccc2C)CC1.Cl.Cl (stereo not drawn),inactive: 1.04
21,C[C@@H]1CCCCO[C@H](CN(C)C(=O)Nc2ccc3c(c2)OCO3)[C@@H](C)CN([C@H](C)CO)C(=O)c2cc(NC(=O)C3CCCCC3)ccc2O1,inactive: 0.989

row,SMILES,relative growth
1,O=C(CN1CCOCC1)N[C@H]1CC[C@@H](CCn2cc(C3CCCC3)nn2)O[C@H]1CO,inactive: 0.982
2,C[C@@H]1CCCCO[C@H](CN(C)S(C)(=O)=O)[C@@H](C)CN([C@H](C)CO)C(=O)c2cc(NS(=O)(=O)c3ccc(F)cc3)ccc2O1,inactive: 1
3,CCCNC(=O)[C@@H]1c2ccccc2C(=O)N(Cc2cc(C(F)(F)F)cc(C(F)(F)F)c2)[C@H]1c1ccc(CO)cc1,inactive: 1.01
4,Cc1ccc(S(=O)(=O)Nc2ccc3c(c2)C(=O)N([C@H](C)CO)C[C@@H](C)[C@H](CN(C)S(=O)(=O)c2ccc(Cl)cc2)OCCCC[C@@H](C)O3)cc1,inactive: 1.02
5,C[C@H](CO)N1C[C@H](C)[C@@H](CN(C)Cc2ccncc2)Oc2c(NS(=O)(=O)c3cccs3)cccc2C1=O,inactive: 0.991
6,C[C@H](CO)N1C[C@H](C)[C@@H](CN(C)C(=O)Nc2ccc(N3CCN(C)CC3)cc2)OCc2cn(nn2)CCCC1=O,inactive: 0.983
7,C[C@H](CO)N1C[C@H](C)[C@@H](CN(C)S(=O)(=O)c2ccc(Cl)cc2)Oc2ccc(NS(=O)(=O)c3cn(C)cn3)cc2CC1=O,inactive: 1.03
8,CC(C)NC(=O)N(C)C[C@@H]1Oc2ccc(NC(=O)C3CCCCC3)cc2C(=O)N([C@H](C)CO)C[C@H]1C,inactive: 0.97
9,C[C@H](CO)N1C[C@H](C)[C@H](CN(C)S(=O)(=O)c2ccccc2)Oc2c(NC(=O)C3CC3)cccc2C1=O,inactive: 0.99
10,Cc1ccc(S(=O)(=O)NC(=O)NN2CCCCCC2)cc1,inactive: 1.06
11,O=C(CCCCCNC(=O)OCc1ccc(CO[C@H]2C[C@@H](C3CCCCC3)C=C(C(=O)N3CCN(Cc4ccccc4)CC3)O2)cc1)NO,inactive: 1.01
12,Cc1noc(C)c1NC(=O)Nc1ccc2c(c1)C(=O)N([C@H](C)CO)C[C@H](C)[C@H](CN(C)Cc1ccccc1)OCCCC[C@@H](C)O2,inactive: 0.984
13,C[C@@H]1CN([C@H](C)CO)C(=O)c2cccc(NS(=O)(=O)c3ccccc3)c2O[C@@H]1CN(C)S(=O)(=O)c1ccccc1,inactive: 0.994
14,C[C@@H]1C(=O)O[C@H]2[C@H](O)[C@@]34[C@H]5C[C@@H](C(C)(C)C)[C@]36[C@@H](OC(=O)[C@@H]6O)O[C@@]4(C(=O)O5)[C@@]12O,inactive: 0.996
15,C#CCN(O[C@@H](/C=C/[C@@H](O)CCn1cc(-c2cccc(/C=C/C(=O)NO)c2)nn1)C1CC1)[C@@H](Cc1ccccc1)C(=O)OC,inactive: 1.01
16,CCCC#Cc1ccc2c(c1)O[C@H](CN(C)S(=O)(=O)c1cccc(OC)c1)[C@H](C)CN([C@@H](C)CO)S2(=O)=O,inactive: 1.01
17,C[C@H]1CN([C@@H](C)CO)C(=O)c2cccc(NS(C)(=O)=O)c2O[C@H]1CN(C)Cc1ccc(C(=O)Nc2ccccc2N)cc1,inactive: 0.999
18,COCCN1CCN(C)C2(CCN(C(=O)[C@H]3CCCO3)CC2)C1=O,inactive: 0.998
19,C[C@@H]1CN([C@H](C)CO)C(=O)c2cc(NS(=O)(=O)c3cn(C)cn3)ccc2O[C@@H]1CN(C)C(=O)NC1CCCCC1,inactive: 0.98
20,C[C@H](CO)N1C[C@H](C)[C@@H](CN(C)C(=O)Nc2cccc(F)c2)Oc2cc(C#CC3(O)CCCC3)ccc2S1(=O)=O,inactive: 0.996
21,Cc1onc(-c2ccccc2)c1C#N,inactive: 0.989

row,SMILES,relative growth
1,O=C(CCCCCC(=O)N/N=C/[C@H](O)[C@@H](O)[C@H](O[C@@H]1O[C@H](CO)[C@H](O)[C@H](O)[C@H]1O)[C@H](O)CO)NO,inactive: 1.01
2,CC(C)NC(=O)Nc1ccc2c(c1)C(=O)N([C@H](C)CO)C[C@@H](C)[C@H](CN(C)C(=O)Nc1ccccc1)OCCCC[C@@H](C)O2,inactive: 0.988
3,O=C(C[C@H]1CC[C@H](NC(=O)CN2CCOCC2)[C@@H](CO)O1)NC1CCC1,inactive: 1
4,COc1ccc(NC(=O)Nc2ccc3c(c2)CC(=O)N([C@@H](C)CO)C[C@@H](C)[C@@H](CN(C)S(=O)(=O)c2c(C)noc2C)O3)cc1,inactive: 1.01
5,C[C@H](CO)N1C[C@H](C)[C@@H](CN(C)C(=O)Nc2ccccc2)Oc2ccc(NC(=O)Nc3ccc(C(F)(F)F)cc3)cc2C1=O,inactive: 0.993
6,O=C(O)CC(O)(CC(=O)O)C(=O)O.[LiH].[LiH].[LiH],inactive: 1.01
7,Cc1ccc(S(=O)(=O)N(C)C[C@@H]2OCCCC[C@H](C)Oc3ccc(NC(=O)Nc4ccc(C(F)(F)F)cc4)cc3C(=O)N([C@@H](C)CO)C[C@@H]2C)cc1,inactive: 1
8,C[C@@H]1CN([C@H](C)CO)C(=O)c2cccc(NC(=O)C3CC3)c2O[C@@H]1CN(C)S(=O)(=O)c1cccs1,inactive: 1.04
9,COc1ccc(CNC(=S)NN)cc1,inactive: 0.966
10,CC(C)(C)[C@H]1CCc2c(sc3nc(-c4ccccc4)cn23)C1,inactive: 0.978
11,C[C@H]1CN([C@@H](C)CO)C(=O)Cc2cc(NS(=O)(=O)c3ccc(Cl)cc3)ccc2O[C@H]1CN(C)S(C)(=O)=O,inactive: 0.978
12,C[C@@H]1CCCCO[C@@H](CN(C)Cc2ccc(Cl)c(Cl)c2)[C@@H](C)CN([C@H](C)CO)C(=O)c2cc(NC(=O)Nc3ccccc3)ccc2O1,inactive: 1.02
13,CN1CCN(C(=O)C[C@@H]2CC[C@H]3[C@@H](COc4ccc(NC(=O)c5cccs5)cc4C(=O)N3C)O2)CC1,inactive: 1.02
14,C[C@@H]1CN([C@@H](C)CO)C(=O)CCCn2nncc2CO[C@@H]1CN(C)C(=O)Nc1ccc(N2CCN(C)CC2)cc1,inactive: 0.987
15,C[C@@H]1CCCCO[C@@H](CN(C)C(=O)NC2CCCCC2)[C@@H](C)CN([C@H](C)CO)C(=O)c2cc(NS(=O)(=O)c3ccc(F)cc3)ccc2O1,inactive: 0.983
16,C[C@@H]1CN([C@@H](C)CO)C(=O)c2cc(NC(=O)NC3CCCCC3)ccc2O[C@@H]1CN(C)Cc1ccc(-c2ccccc2)cc1,inactive: 1.02
17,CC(C)NC(=O)N(C)C[C@@H]1Oc2c(NC(=O)C3CCCCC3)cccc2C(=O)N([C@@H](C)CO)C[C@@H]1C,inactive: 0.988
18,C[C@@H]1CN([C@@H](C)CO)C(=O)Cc2cc(NC(=O)Nc3cccc4ccccc34)ccc2O[C@@H]1CN(C)C(=O)Nc1ccccc1,inactive: 1.04
19,Cc1noc(C)c1NC(=O)N(C)C[C@H]1OCCCC[C@@H](C)Oc2ccc(NC(=O)Nc3ccccc3)cc2C(=O)N([C@H](C)CO)C[C@@H]1C,inactive: 1.01
20,C[C@H](CO)N1C[C@H](C)[C@H](CN(C)Cc2ccccc2)OCCCC[C@H](C)Oc2ccc(NC(=O)Nc3ccc4c(c3)OCO4)cc2C1=O,inactive: 0.989
21,CCCNC(=O)N(C)C[C@@H]1Oc2cc(-c3ccc(C)cc3)ccc2S(=O)(=O)N([C@H](C)CO)C[C@H]1C,inactive: 1
